# Lines with a small IC50 respond at low doses; a limit (>, <) means that the fit lies beyond the doses tested. AUC is the area under the same curve over the 256-fold range up to the top dose, as a fraction; it is 1 without any effect and falls as sensitivity rises. For some of these results: The top dose, if marked as inferred, is not printed in the source and was worked back from the curve model. For some of these results: Where an entry number is given, a second screen of the drug exists; the two often differ.
# What was measured:
# Assay in all cases: Viability of human cancer cell lines after 72 h of drug (GDSC screen)
# AZD-0530 = compound: CN1CCN(CCOc2cc(OC3CCOCC3)c3c(Nc4c(Cl)ccc5c4OCO5)ncnc3c2)CC1 [AZD-0530]; conditions: top dose 2 µM
# Method: (§1)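 Human cancer cell lines in 384-well plates, medium with 10% serum, drug for 72 h over a 256-fold dose range (nine 2-fold or five 4-fold steps up to the top dose). Adherent lines were fixed and stained with the nucleic acid dye Syto60, suspension lines read with resazurin; signal relative to control wells, capped at 0 and 100%. One two-parameter sigmoid per drug and line, fitted in a mixed model over all curves with the slope shared within a line.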
# TPCA-1 = compound: NC(=O)Nc1sc(-c2ccc(F)cc2)cc1C(N)=O [TPCA-1]; conditions: top dose 20 µM
# Method: as §1
# Imatinib = compound: Cc1ccc(NC(=O)c2ccc(CN3CCN(C)CC3)cc2)cc1Nc1nccc(-c2cccnc2)n1 [Imatinib]; conditions: top dose 2 µM
# Method: as §1
# Y-39983 = compound: C[C@@H](N)c1ccc(C(=O)Nc2ccnc3[nH]ccc23)cc1 [Y-39983]; conditions: top dose 20 µM; top dose inferred
# Method: as §1
# PHA-793887 = compound: CC(C)CC(=O)Nc1n[nH]c2c1CN(C(=O)C1CCN(C)CC1)C2(C)C [PHA-793887]; conditions: top dose 10.24 µM
# Method: as §1
# Pyrimethamine = compound: CCc1nc(N)nc(N)c1-c1ccc(Cl)cc1 [Pyrimethamine]; conditions: top dose 20 µM; top dose inferred
# Method: as §1
# PLX4720 = compound: CCCS(=O)(=O)Nc1ccc(F)c(C(=O)c2c[nH]c3ncc(Cl)cc23)c1F [PLX4720]; conditions: top dose 10 µM
# Method: as §1
# Epothilone B = compound: C/C(=C\c1csc(C)n1)[C@@H]1C[C@@H]2O[C@]2(C)CCC[C@H](C)[C@H](O)[C@@H](C)C(=O)C(C)(C)[C@@H](O)CC(=O)O1 [Epothilone B]; conditions: top dose 0.032 µM; top dose inferred
# Method: as §1
# [1] = screen: GDSC drug entry 1371, top dose inferred
Cell Line,AUC (AZD-0530),IC50 (AZD-0530) [µM],AUC (TPCA-1),IC50 (TPCA-1) [µM],AUC (Imatinib),IC50 (Imatinib) [µM],AUC (Y-39983),IC50 (Y-39983) [µM],AUC (PHA-793887),IC50 (PHA-793887) [µM],AUC (Pyrimethamine),IC50 (Pyrimethamine) [µM],AUC (PLX4720; screen: GDSC drug entry 1036),IC50 (PLX4720; screen: GDSC drug entry 1036) [µM],AUC (PLX4720; [1]),IC50 (PLX4720; [1]) [µM],AUC (Epothilone B),IC50 (Epothilone B) [µM]
"ALL-PO (lymphoblastic leukaemia, suspension)",0.966,> 2,0.321,0.383,0.926,> 2,0.844,15.6,0.417,0.373,0.485,1.13,0.781,4.4,0.977,> 10,0.456,0.00151
"AM-38 (glioma, semi-adherent)",0.981,> 2,0.745,6.4,0.984,> 2,0.904,> 20,0.847,7.81,0.973,> 20,0.963,> 10,0.985,> 10,0.732,0.00928
"AMO-1 (haematopoietic neoplasm, suspension)",0.985,> 2,0.82,9.46,0.99,> 2,0.881,15.9,0.612,1.24,0.861,13.1,0.991,> 10,0.99,> 10,0.539,0.00251
"ATN-1 (T-cell lymphoblastic leukaemia, suspension)",0.969,> 2,0.404,0.693,0.98,> 2,0.91,> 20,0.755,3.26,0.538,1.58,0.37,0.28,0.951,> 10,0.614,0.00404
"BB65-RCC (kidney, adherent)",0.928,> 2,0.939,> 20,0.98,> 2,0.966,> 20,0.982,> 10.2,0.883,> 20,–,–,0.842,8.62,0.377,0.00087
"CA46 (Burkitt lymphoma, suspension)",0.98,> 2,0.636,3.05,0.984,> 2,0.777,8.64,0.402,0.338,0.952,> 20,0.964,> 10,0.942,> 10,0.792,0.0156
"CESS (acute myeloid leukaemia, suspension)",0.99,> 2,0.664,3.32,0.99,> 2,0.803,8.27,0.388,0.331,0.749,–,0.969,> 10,0.953,> 10,0.581,0.00323
"CGTH-W-1 (thyroid, adherent)",0.926,> 2,0.889,> 20,0.597,0.23,0.981,> 20,0.876,10.1,0.835,13,0.959,> 10,0.985,> 10,0.571,0.00312
"COLO-800 (melanoma, adherent)",0.958,> 2,0.939,> 20,0.98,> 2,0.974,> 20,0.811,5.26,0.894,> 20,0.988,> 10,0.783,4.1,0.862,0.026
"COR-L88 (small cell lung carcinoma, adherent)",0.973,> 2,0.867,> 20,0.96,> 2,0.971,> 20,0.884,> 10.2,0.904,> 20,0.982,> 10,0.971,> 10,0.928,> 0.032
"COR-L279 (small cell lung carcinoma, suspension)",0.988,> 2,0.884,17.5,0.99,> 2,0.991,> 20,0.399,0.35,0.77,6.81,0.991,> 10,0.957,> 10,0.763,0.0103
"CRO-AP2 (B-cell lymphoma, suspension)",0.99,> 2,–,–,0.99,> 2,–,–,–,–,0.865,13.9,0.983,> 10,0.989,> 10,–,–
"CTB-1 (B-cell lymphoma, suspension)",0.915,> 2,0.411,0.654,0.971,> 2,0.789,12.6,0.472,0.524,0.876,> 20,0.857,> 10,0.907,> 10,0.756,0.0147

# — the supplement of paper PMC4967469
